# Patent US20250320290A1, “METHODS FOR TRIGGERING SAFETY KILLING […] USING A CD47-SIRPalpha BLOCKADE AGENT” (Sana Biotechnology, Inc., priority 2020, published 2025)
# B1: SIRPα IgG4Fc: SIRPαFc fusion protein with IgG4 Fc; mediates killing by blocking of CD47 (protein)
# chain: [about 120 residues omitted]KPSAPVVSGPAARATPQHTVSFTCESHGFSPRDITLKWFKNGNELSDFQTNVDPVGESVSYSIHSTAKVVLTREDVHSQVICEVAHVTLQGDPLRGTANLSETIRVPPTLEVTQQPVRAENQVNVTCQVRKFYPQRLQLTWLENGNVSRTETASTVTENKDGTYNWMSWLLVNVSAHRDDVKLTCQVEHDGQPAVSKSHDLKVSAHPKEQGSNTAAENTGSNERNIY
# modifications: left off: a dimerising Fc or GST
# B2: SIRPα IgG1Fc: SIRPαFc fusion protein with IgG1 Fc; blocks CD47 and induces CDC and ADCC (protein)
# chain: [about 120 residues omitted]KPSAPVVSGPAARATPQHTVSFTCESHGFSPRDITLKWFKNGNELSDFQTNVDPVGESVSYSIHSTAKVVLTREDVHSQVICEVAHVTLQGDPLRGTANLSETIRVPPTLEVTQQPVRAENQVNVTCQVRKFYPQRLQLTWLENGNVSRTETASTVTENKDGTYNWMSWLLVNVSAHRDDVKLTCQVEHDGQPAVSKSHDLKVSAHPKEQGSNTAAENTGSNERNIY
# modifications: left off: a dimerising Fc or GST
# Assays:
# [1] = tested on: HIP CAR T cells / Nalm-6 tumor; experiment: Nalm6 tumor model in NSG mice with human NK cells and HIP CAR-T cells with or without fusion protein; format: in vivo; conditions: for tumor growth: HIP CAR T cells plus fusion protein; for killing of HIP CAR T cells: fusion protein intravenously
# Procedure: NSG mice were studied using a Nalm6 tumor model. Adoptive transfer of human NK cells and human HIP CAR-T cells was performed intravenously with and without fusion protein intravenously. 100U/ml IL-2 was thawed overnight before sorting, followed by 100U/ml IL-2 overnight after sorting and before injection (FIG. 30). When HIP CARs were eliminated by a safety strategy, Nalm-6 tumor grew (FIG. 31).
# [2] = tested on: human HIP iPSCs in the brain; experiment: Intracranial human HIP iPSCs in NSG mice with adoptive transfer of human NK cells and human microglia; format: in vivo
# Procedure: Brain. 24 to 48 hours prior to scheduled surgery, animals were provided with MediGel (Clear H2O, Portland, ME) with carprofen (5 mg/Kg/day). The amount calculated was based on standard intake. To each cup of MediGel (sucralose), 1.5 mg of carprofen was added. Alternatively, buprenorphine (0.05-0.1 mg/Kg IM or IP) BID every 12 hours for three days or Buprenorphine SR (0.5-1.0 mg/Kg SC) was administered once prior to the start of surgery. Buprenorphine SR or buprenorphine was not used post-operatively in conjunction with MediGel.
# On surgery day, animals were anesthetized and maintained via isoflurane inhalation (3% and 1.5%, respectively). The top of the head was shaved and scrubbed with chlorhexidine and wiped with 70% EtOH. The animal was placed on a stereotaxic device. An incision was made midline through the scalp long enough to easily expose midline suture from bregma to lambda.
# At pre-determined coordinates (as identified by the Allen Brain Atlas or George Paxinos' Mouse Brain Atlas), the cranium was drilled through without penetrating the dura. A micro-drill was exchanged for a micro-infusion pump with a Hamilton syringe and needle. The needly was “dropped” to the depth required to reach the target area of the brain and injectate (differentiated stem cells in 1 μl-5 μl saline) was infused. The incision was closed with absorbable suture and mouse recovered on a warming pad. Animals were maintained on MediGel (sucralose gel with carprofen) for 3 days.
# (§1) The mice were then positioned in a nose cone in the bioluminescence chamber (anesthesia was maintained at 1.5% with 500 ml oxygen/min). The mice were imaged for 180 seconds. A circle was drawn around the region of interest (ROI) giving a reading of photons/sec of emitted light.
# (§2) IP dosing. The antibody (100 μl) was injected into the peritoneal cavity from the ventral surface by piercing the skin and muscle layers.
# human HIP iPSCs [3] = experiment: In vitro killing of HIP cells with SIRPαFc fusion proteins (NK, ADCC NK, CDC, macrophage, ADCC macrophage); format: cell-based; conditions: macrophages
# Text: SIRPαFc fusion proteins were studied in vitro for their effects on human iPSCs. Effects on HIP CD19CAR-T cells were studied with respect to killing mediated by NK cells, ADCC NK cells, and CDC (FIG. 18A). Effects on HIP cells with SIRPα IgG1Fc were studied with respect to killing mediated by NK cells, ADCC NK cells, and CDC (FIG. 18B). Effects on HIP cells with SIRPα IgG4Fc (including a dKO killing control) were studied with respect to killing mediated by NK cells, ADCC NK cells, and CDC (FIG. 18C). Effects on HIP cells were studied with respect to killing mediated by macrophages and ADCC macrophages (FIG. 18D). Effects on HIP cells with SIRPα IgG1Fc were studied with respect to killing mediated by macrophages and ADCC macrophages (FIG. 18E). Effects on HIP cells with SIRPα IgG4Fc (including a dKO killing control) were studied with respect to killing mediated by macrophages and ADCC macrophages (FIG. 18F).
# CD19 HIP CAR = experiment: In vitro Xcelligence killing of CD19 HIP CAR T cells by NK cells or macrophages with fusion proteins; format: cell-based, human; conditions: NK cells, macrophages
# Procedure: In vitro read-out was performed with Xcelligence.
# human HIP iPSCs [4] = experiment: Subcutaneous human HIP iPSCs in NSG mice with adoptive transfer of human NK cells, BLI; format: in vivo; conditions: fusion protein local 1 mg D0, D1, D3; re-injection of iPSCs D20 and D40 followed by injections for 3 days
# Procedure: Subcutaneous. Healthy male NSG mice were anesthetized via isoflurane inhalation anesthesia in a knockdown chamber. The anesthetized mice were removed from the chamber and placed in a supine position. The injection site (right inguinal area) was sprayed with 70% EtOH. Cells were injected subcutaneously proximal to the inguinal region.
# as §1, §2
# SC dosing. Mice were anesthetized via isoflurane inhalation anesthesia and placed in a supine position. The injection site (right inguinal area) was sprayed with 70% EtOH and the antibody (100 μl) was injected into the area of the implanted cells.
# [5] = local (intracranial) 1 mg D0, D1, D3
Molecule,tumor growth [1],killing of HIP CAR T cells [1],"mice with killing of HIP iPSCs in the brain [2, 5]",mechanism of killing of HIP cells (human HIP iPSCs [3]),CD47 blocking in vitro (CD19 HIP CAR),effect on HIP iPSCs (human HIP iPSCs [4]),efficiency of intraperitoneal application ([2]; compared to local administration),"mice with killing of HIP iPSCs in the brain ([2]; intraperitoneal 1 mg D0, D1, D3, blood brain barrier broken by mannitol)","potency compared with SIRPα IgG4Fc ([2]; local 1 mg D0, D1, D3)","killing of HIP iPSCs in the brain [2, 5]"
B1,comparable to mock transfected T cell group,killing of HIP CAR T cells,1 out of 5,mediate killing by blocking of CD47,CD47 blocking,CD47 blocking,–,–,–,–
B2,comparable to mock transfected T cell group,killing of HIP CAR T cells,–,additionally induce CDC and ADCC,CD47 blocking,killing of HIP iPSCs repeatedly in all mice,less efficient compared to local administration,1 out of 5,more potent,killing of HIP iPSCs in the brain
